Measured values reported in PubChem BioAssay AID2313 (Broad Institute, 2010).
About 460 (2.1%) of roughly 22,000 compounds were called active. Inconclusive means that the source gave no clear call. Such entries were picked first, then a sample of the others.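 Rule for the calls: active = mean inhibition across valid replicates above about 65% (limit read from the data); inconclusive = mean under the limit, yet half or more replicates past it; inactive = the rest.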

experiment: Shh-driven Gli reporter inhibition – luminescence, Shh-LIGHT2 cells, Gli-luciferase, primary screen (AID 2313); settings: 30 h, stronger effect = higher value;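 note: pathway switched on by Shh-conditioned medium diluted 1 in 25 in low serum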

Compound	inhibition
C[C@@H]1CCCCO[C@@H](CN(C)Cc2ccc(C(F)(F)F)cc2)[C@@H](C)CN([C@H](C)CO)C(=O)c2cc(NS(=O)(=O)c3cccs3)ccc2O1	inconclusive: 63.3%
CCOc1ccc(S(=O)(=O)Nc2nc3ccccc3nc2Nc2ccccc2)cc1	inconclusive: 50.9%
COc1ccc(CN(C)C[C@H]2Oc3c(NC(=O)Nc4ccc(C(F)(F)F)cc4)cccc3C(=O)N([C@@H](C)CO)C[C@@H]2C)cc1	inconclusive: 42.5%
C[C@H](CO)N1C[C@H](C)[C@H](CN(C)C(=O)Nc2ccc(C(F)(F)F)cc2)Oc2c(NC(=O)c3nc4ccccc4s3)cccc2C1=O	inconclusive: 58.8%
COc1cc(C)c2c(c1)CCC1C2CCC2(C)C(O)CCC12 (configuration not stated)	inconclusive: 54.9%
C[C@@H]1CN([C@H](C)CO)C(=O)c2cccc(NC(=O)C3CCCCC3)c2O[C@H]1CN(C)Cc1ccc(Cl)c(Cl)c1	inconclusive: 40.5%
C[C@@H]1CCCCO[C@H](CN(C)S(=O)(=O)c2ccc(F)cc2)[C@@H](C)CN([C@H](C)CO)C(=O)c2cc(N(C)C)ccc2O1	inconclusive: 39.8%
C[C@@H]1CN([C@H](C)CO)C(=O)Cc2cc(NC(=O)Cc3ccccc3)ccc2O[C@@H]1CN(C)Cc1ccccc1	inconclusive: 62.3%
COc1cc2c(c(N)c1OC)C(=O)/C(=C/c1cc(C)c(O)c(C)c1)C2	active: 84.4%
CNC[C@H]1Oc2ccc(NS(=O)(=O)c3c(C)noc3C)cc2C(=O)N([C@H](C)CO)C[C@H]1C	inactive: -13.5%
C=C1C(=O)O[C@@H]2/C=C(/CO[C@@H]3O[C@H](CO)[C@@H](O)[C@H](O)[C@H]3O)CC/C=C(/C=O)C[C@H](O)[C@@H]12	inactive: -9.16%
CC(=O)OC[C@H]1O[C@@H](Oc2cc(OC(C)=O)c3c(=O)cc(-c4ccc(OC(C)=O)cc4)oc3c2)[C@H](OC(C)=O)[C@@H](OC(C)=O)[C@@H]1OC(C)=O	active: 64.7%
C[C@@H]1CN([C@@H](C)CO)C(=O)Cc2cc(NS(=O)(=O)c3ccccc3)ccc2O[C@@H]1CN(C)S(=O)(=O)c1cn(C)cn1	inconclusive: 23.5%
COc1ccc(CN(C)C[C@H]2OCCCC[C@@H](C)Oc3ccc(NS(=O)(=O)c4ccc(Cl)cc4)cc3C(=O)N([C@H](C)CO)C[C@@H]2C)cc1	inconclusive: 43.2%
C=C1C(=O)O[C@@H]2C[C@H](C)C3C[C@H](O)[C@H](O)[C@@]3(C)C[C@H]12 (some centres not stated)	inconclusive: 43.3%
OC1(c2ccc(Cl)cc2)CCN(Cc2c[nH]c3ccccc23)CC1	inconclusive: 59.2%
Cc1noc(C)c1NC(=O)N(C)C[C@H]1Oc2ccc(NS(C)(=O)=O)cc2CC(=O)N([C@@H](C)CO)C[C@H]1C	inconclusive: 25.4%
CC1=C(CO)C(=O)OC([C@@H](C)C2CC[C@H]3C4C[C@H]5O[C@]56[C@@H](O)C=CC(=O)[C@]6(C)C4CC[C@]23C)C1 (some centres not stated)	inconclusive: -52.6%
C[C@@H]1CN([C@@H](C)CO)C(=O)c2cc(NC(=O)NC3CCCCC3)ccc2O[C@@H]1CN(C)Cc1ccccc1	inconclusive: 62.8%
N#CC1=C(N)Oc2n[nH]c(-c3ccccc3)c2C1c1ccoc1 (configuration not stated)	inconclusive: 57.9%
COc1ccc(/C=C/C(=O)O[C@@H]2[C@@H](OC(=O)/C=C/c3ccc(OC)cc3)[C@H](C)O[C@@H](O[C@H]3[C@@H]4C=CO[C@@H](O[C@@H]5O[C@H](CO)[C@@H](O)[C@H](O)[C@H]5O)[C@@H]4[C@@]4(CO)O[C@@H]34)[C@@H]2OC(C)=O)cc1	inconclusive: 62.9%

Compound	inhibition
C[C@H](CO)N1C[C@H](C)[C@@H](CN(C)CC2CC2)Oc2c(NC(=O)c3ccncc3)cccc2C1=O	inconclusive: 28.9%
O=C(CSc1nc2ccccc2nc1N1CCOCC1)NCc1ccc2c(c1)OCO2	inconclusive: 38.8%
C[C@@H]1CN([C@H](C)CO)C(=O)Cc2cc(NC(=O)c3ccncc3)ccc2O[C@H]1CN(C)C	inactive: -7.08%
O=C(NCCc1ccccc1)N1c2ccccc2Sc2ccccc21	active: 91.9%
CC1(C)CC[C@]2(C(=O)O)CC[C@]3(C)C(=CCC4[C@@]5(C)CC[C@H](O[C@@H]6O[C@H](C(=O)O)[C@@H](O[C@@H]7OC[C@@H](O)[C@H](O)[C@H]7O)[C@H](O)[C@H]6O)C(C)(C)C5CC[C@]43C)C2C1 (some centres not stated)	active: 105%
c1ccc(SCCN2CCN(CCSc3ccccc3)CC2)cc1	inconclusive: 62%
C[C@H]1CN([C@@H](C)CO)C(=O)Cc2cc(NC(=O)CCN3CCOCC3)ccc2O[C@@H]1CN(C)CC1CCCCC1	inconclusive: 42.4%
Cc1ccc(-n2nnnc2-c2cnn(-c3ccccc3)c2C)cc1	active: 88.7%
Cc1noc(C)c1NC(=O)Nc1ccc2c(c1)C(=O)N([C@H](C)CO)C[C@H](C)[C@@H](CN(C)C(=O)c1ccccc1)OCCCC[C@@H](C)O2	inconclusive: 62.3%
O=c1oc2cc(O)ccc2s1	inconclusive: 63.3%
Cc1noc(C)c1S(=O)(=O)N(C)C[C@@H]1Oc2ccc(NC(=O)C3CC3)cc2CC(=O)N([C@H](C)CO)C[C@@H]1C	active: 69.7%
COc1ccc(S(=O)(=O)Nc2cccc3c2O[C@H](CN(C)S(=O)(=O)c2ccc(Cl)cc2)[C@H](C)CN([C@@H](C)CO)C3=O)cc1	inconclusive: 35.7%
COc1ccc(CN(C)C[C@H]2Oc3c(NS(=O)(=O)c4ccc(OC)cc4)cccc3C(=O)N([C@H](C)CO)C[C@@H]2C)cc1	inconclusive: 56.7%
Cc1ccc(S(=O)(=O)Nc2ccc3c(c2)C(=O)N([C@@H](C)CO)C[C@@H](C)[C@@H](CN(C)S(=O)(=O)c2c(C)noc2C)O3)cc1	inactive: 19.4%
Cc1ccc(S(=O)(=O)N2CCC(=O)c3ccccc32)cc1	inactive: -11.2%
C[C@H](CO)N1C[C@H](C)[C@@H](CN(C)C(=O)Nc2ccccc2)Oc2c(NC(=O)c3nc4ccccc4s3)cccc2C1=O	inconclusive: -7.61%
O=C(CSc1nnnn1-c1ccccc1)N1c2ccccc2CCc2ccccc21	inconclusive: 61.9%
C[C@H]1CN([C@@H](C)CO)C(=O)c2cccc(NC(=O)C3CC3)c2O[C@H]1CN(C)CC1CC1	inconclusive: 58%
CCc1ccc(CCOc2ccc(CC3SC(=O)NC3=O)cc2)nc1 (configuration not stated)	inconclusive: 26.5%
Cc1ccc(OC(=O)OCSc2nn[nH]n2)cc1	inconclusive: 57.9%
OCCN1CCN(CCCN2c3ccccc3Sc3ccc(C(F)(F)F)cc32)CC1	inconclusive: 62.7%

Compound	inhibition
COc1ccc(S(=O)(=O)Nc2cccc3c2O[C@H](CN(C)C(=O)NC2CCCCC2)[C@@H](C)CN([C@H](C)CO)C3=O)cc1	inconclusive: 36.4%
C[C@H](CO)N1C[C@H](C)[C@@H](CN(C)Cc2ccncc2)Oc2c(NC(=O)C3CCOCC3)cccc2C1=O	inconclusive: 39.1%
C[C@H](CO)N1C[C@H](C)[C@H](CN(C)S(=O)(=O)c2cn(C)cn2)Oc2c(NS(=O)(=O)c3cccs3)cccc2C1=O	inconclusive: 33.3%
CC1=CC(C)(C)N(S(=O)(=O)c2ccc(C)cc2)c2ccccc21	active: 67.7%
Cc1cc(C(=O)Sc2cccc(Br)c2)nn1C(C)(C)C	inconclusive: 37.6%
COC(=O)C[C@H]1C(C)(C)[C@@H](OC(C)=O)[C@@H]2CC3=C4CC(=O)O[C@@H](c5ccoc5)[C@]4(C)CCC3[C@@]1(C)C2=O (some centres not stated)	inconclusive: 43.8%
CC(C)CNP(=O)(OC1CC(C)CCC1C(C)C)c1ccccc1 (configuration not stated)	inactive: -5.2%
CC(C)NC(=O)Nc1ccc2c(c1)CC(=O)N([C@H](C)CO)C[C@@H](C)[C@@H](CN(C)Cc1ccc(Oc3ccccc3)cc1)O2	inconclusive: 49.3%
C[C@@H]1CN([C@H](C)CO)C(=O)c2cccc(N(C)C)c2O[C@@H]1CN(C)Cc1ccc(Cl)c(Cl)c1	inactive: -12.7%
CCc1cc(C(c2ccc(Cl)cc2)N2CCN(CCO)CC2)c(NC(=O)c2ccccc2)s1 (configuration not stated)	active: 81.2%
COC(=O)C1=COC(O[C@@H]2O[C@H](CO)[C@@H](O)[C@H](O)[C@H]2O)[C@@H]2[C@@](C)(O)[C@@H](OC(=O)/C=C/c3ccc(OC)cc3)C[C@]12O (some centres not stated)	inactive: -18.3%
C[C@@H]1CN([C@@H](C)CO)C(=O)c2cccc(NS(C)(=O)=O)c2O[C@@H]1CN(C)CC1CC1	inconclusive: 29.5%
C=CC1(C)C=C2CCC3C(C)(C)C(O[C@@H]4O[C@@H](CO)[C@H](O)[C@H]4O)CCC3(C)C2CC1O[C@@H]1O[C@H](CO)[C@@H](O)[C@H](O)[C@H]1O (some centres not stated)	active: 99.5%
COc1ccc(NCC(C#N)C(=O)NCc2ccc(Cl)cc2)cc1 (configuration not stated)	inconclusive: 43.6%
Cc1noc(C)c1S(=O)(=O)Nc1ccc2c(c1)CC(=O)N([C@@H](C)CO)C[C@H](C)[C@@H](CN(C)Cc1ccc(Cl)c(Cl)c1)O2	inconclusive: 47%
CC1(C)CC(=O)C2=C(C1)Nc1ccc3ccccc3c1C2c1cccnc1 (configuration not stated)	inconclusive: 47.6%
CC1(C)C=Cc2c(c(CCO)c3occ(-c4ccc(O)c(O)c4)c(=O)c3c2O)O1	inactive: 27.7%
COc1ccccc1-c1coc2cc(O)ccc2c1=O	inconclusive: 24.8%
C[C@H]1CN([C@@H](C)CO)C(=O)Cc2cc(NC(=O)C3CCCCC3)ccc2O[C@H]1CN(C)C(=O)Nc1ccc(C(F)(F)F)cc1	inconclusive: 33.4%
N#C/C(=C\c1ccc(O)c(O)c1)C(=O)Nc1ccccc1	inactive: 1.15%
